According to PubChem BioAssay AID493208 (National Center for Advancing Translational Sciences (NCATS), 2011):
The campaign covered roughly 44,000 compounds. About 340 (0.77%) were called active. Another 5% or so got no clear call; they are omitted. The call rests on the fitted dose curve; in most records, active means well fitted inhibition curve with a large enough effect; inconclusive means small, poorly fitted or top-dose-only effect; inactive means flat fitted curve, though single readings scatter. The list shows a part of the results.

Test: Acumen qHTS Assay for Inhibitors of the mTORC1 Signaling Pathway in MEF (Tsc2-/-, p53-/-) Cells: Sytravon;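 further: plate controls were DMSO for no effect and rapamycin for full effect; nearly all actives have a fitted effect of over 50% in size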
Conditions: phospho-rpS6 immunofluorescence/PI, 24 h; series mostly up to 38.3 µM; activity change, negative = inhibition: at the top concentration
Summary of the method: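 Tsc2-/-, p53-/- mouse embryonic fibroblasts (empty-vector line) exposed to compound 24 hrs at 37 C, fixed, immunostained for phospho-rpS6 and counterstained with propidium iodide. Acumen laser scanning gives % positive cells from Alexa 488/PI ratio, thresholded using 7.5 nM rapamycin; PI count gives viability.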

Activity change, negative = inhibition, inactive:
Cc1cccc(N(CC(=O)NCc2ccccc2)S(C)(=O)=O)c1C 2.74%, CCc1ccc(C2=CC(c3cccc(C)c3)n3c(nc4ccccc43)N2)cc1 (stereo unspecified) -4.25%, Cc1ccc(C)c(NC(=O)Cn2cnc3c(oc4ccccc43)c2=O)c1 4.84%, O=C(Nc1ccc(OCc2cc(=O)n3ccsc3n2)cc1)c1ccc(F)cc1 -7.58%, Cc1nnc(N2CCC(C(=O)NCCc3ccccc3)CC2)c2nn(-c3ccccc3)c(C)c12 -4.58%, CCc1ccc(-c2nc(CN3CCC(C(=O)NCCc4ccc(C)cc4)CC3)c(C)o2)cc1 -8.35%, COc1ccccc1-c1cc(C(=O)N2CCN(c3ccccc3)CC2)no1 -14.4%, COc1ccc(NC(=O)C(c2ccccc2)N2Cc3ccccc3C2=O)cc1 (stereo unspecified) -7.05%, Cc1cc(C)c2c(=O)cc(C(=O)Nc3ccc(C)c(Cl)c3)oc2c1 -3.59%, CCOC(=O)Cn1c(C2CC(=O)N(c3ccc(C)cc3)C2)nc2ccccc21 (stereo unspecified) -0.754%, CCC(=O)N1c2ccccc2CC1C(=O)NCCc1ccc(SC)cc1 (stereo unspecified) 12.3%, Cc1ccccc1OCCn1cc(C(=O)C2CCCCC2)c2ccccc21 0.396%, COCCn1c(-c2ccccc2)c(C)n2c3c(=O)n(C)c(=O)n(C)c3nc12 -5.26%, Cc1ccc(C)c(N2CCN(C(=O)Cn3cnc4sc(C)c(S(=O)(=O)N5CCN(c6ncccn6)CC5)c4c3=O)CC2)c1 -18.8%, O=C(Nc1ccc2c(c1)OCO2)c1cc(-c2cccc(Cl)c2)on1 -11.2%, O=[N+]([O-])c1ccc(C(c2sc3nc(-c4ccco4)nn3c2O)N2CCN(Cc3ccccc3)CC2)cc1 (stereo unspecified) -1.65%, CCOC(=O)c1noc2ncnc(N(CCC(=O)OC)c3ccccc3)c12 -3.14%, CCOC(=O)c1noc2ncnc(Nc3ccc(C)c(F)c3)c12 -3.89%, Cc1ccc(-c2cc(N)n3nc(-c4ccc(C)cc4)cc3n2)cc1 2.67%, COc1ccc(OC)c(C2CC(=O)c3c([nH]c(C(=O)OC4CCC(C)CC4)c3C)C2)c1 (stereo unspecified) -9.43%, CN1CCN(CCCNC(=O)Cn2c(-c3cccs3)cc3ccccc32)CC1 -8.18%, Cc1ccc2c(c1)sc1nc(=O)n(-c3ccc(Cl)cc3)c(=O)n12 4.21%, COc1ccc(N2CCN(CCCNC(=O)C3COc4ccc(OC)cc4C3)CC2)cc1 (stereo unspecified) -1.65%, COc1ccc2c(CNCc3ccc(Cl)cc3)c(C(=O)O)n(Cc3ccccc3C)c2c1 2.21%, CCc1cccc2c(-c3ccccc3)nc(SCC(=O)Nc3ccccc3)nc12 -0.847%, Cc1cccc(Nc2nnc(-n3nc(C)cc3C)c3ccccc23)c1 -0.0597%, O=C(Cn1cc(SCc2ccc(C(F)(F)F)cc2)c2ccccc21)N1CCCCC1 -18.8%, CC(CC(=O)NCc1ccc(Cl)cc1)CC1=NS(=O)(=O)c2ccccc2N1 (stereo unspecified) -0.706%, COc1cc(NC(=O)c2cc(-c3ccc4c(c3)OCO4)on2)cc(OC)c1OC -18.1%, COc1ccc(-c2cc(C)no2)cc1S(=O)(=O)NCc1ccc(OC(C)C)cc1 1.41%, CC(=O)c1ccc(N2CCN(c3nc4c(S(=O)(=O)c5ccccc5)nnn4c4ccc(Cl)cc34)CC2)cc1 5.27%, COc1ccc(S(=O)(=O)c2cn(C)c3cc(N4CCCCC4)c(F)cc3c2=O)cc1 2.79%, COc1ccc(NC(=O)c2cnn(-c3ccc(C)cc3)c2-n2cccc2)cc1Cl -1.43%, Cc1c(-c2nsc(NC(=O)c3ccc(Cl)cc3)n2)nnn1-c1ccc(C(C)C)cc1 -19.6%, Cc1cc(C)cc(NC(=O)CSc2nccn2-c2ccccc2)c1 -4.56%, O=C(NC1CC(=O)N(c2ccccc2)C1)C1CCCCC1 (stereo unspecified) -0.299%, Cc1cc(Br)ccc1NC(=O)c1cc2c(=O)n(C)c3cc(Cl)ccc3c2s1 -7.25%, Cc1cccc2nc(-c3cccnc3)c(Nc3ccc(C(C)C)cc3)n12 -14%, COc1ccc(NC(=O)C2=C(C)Nc3nc(SCc4ccccc4C)nn3C2c2ccc(Br)cc2)cc1 (stereo unspecified) -0.0145%, Cc1cccc(NC(=O)C2CCN(S(=O)(=O)c3cccc4nsnc34)CC2)c1C 1.04%, COc1ccc(S(=O)(=O)N2CCC(c3ccncc3)CC2)cc1Cl -12.2%, CN(C(=O)c1cc(-c2ccccc2O)on1)c1ccccc1 -14.5%, CCCCOc1c(Cl)cc(C(=O)N(Cc2ccc(C)o2)C2CCS(=O)(=O)C2)cc1Cl (stereo unspecified) -4.31%, Cc1cc(C)c2oc(C(=O)N(Cc3ccc(F)cc3)C3CCS(=O)(=O)C3)cc(=O)c2c1 (stereo unspecified) -1.97%, CSc1ccc(CCNc2ncnc3onc(C)c23)cc1 0.931%, CCOC(=O)c1c(C)oc2ccc(N(C(=O)Oc3ccccc3)S(=O)(=O)c3ccccc3)cc12 3.22%, CCOc1ccc(/C=C(\C#N)c2nc(-c3cc4ccccc4oc3=O)cs2)c(OCC)c1 -3.38%, CCN1CCN(C(c2ccc(OC)cc2)c2c(O)cc(C)n(CCOC)c2=O)CC1 (stereo unspecified) 2.43%, COc1ccc(C(CNC(=O)COc2ccc(C)cc2)N2CCCCC2)cc1 (stereo unspecified) -0.708%, CN(C(=O)Cn1c(=O)n(CCCS(=O)(=O)C2CCCCC2)c(=O)c2ccccc21)c1ccccc1 -2.28%, COc1ccc2c(CNCc3ccc(C)o3)c(C(=O)O)n(Cc3ccccc3)c2c1 -3.92%, O=C(Cn1c(=O)oc2ccccc21)NCc1cccc(Cl)c1 -6.27%, CCOc1cc(-c2nc(-c3ccc(-c4ccc(C)cc4)nc3OC)no2)cc(OCC)c1OCC 1.89%, COc1ccc(C2C=C(c3ccccc3)Nc3nc(NC(=O)c4ccc(C)cc4)nn32)cc1 (stereo unspecified) 3.92%, COc1ccc(Cl)cc1NC(=O)Cn1c2ncccc2c(=O)n1-c1ccc(C)c(C)c1 -6.34%, Cc1cccc(CCNC(=O)c2cc3ccccn3n2)c1 11.2%, Cc1cc(C)cc(N(CC(=O)Nc2cccc(C)c2C)S(=O)(=O)c2c(C)[nH]c(=O)[nH]c2=O)c1 -8.43%, COC(=O)c1ccc(Cl)cc1NC(=O)N1CC(C)Oc2ccccc21 (stereo unspecified) -11.7%, Cc1ccc(-n2nc3c(=O)n(CC(=O)Nc4ccccc4F)nc(C)c3c2C)c(C)c1 1.94%, CCOC(=O)c1ccc(NC(=O)c2cc3cc(C)ccc3n2C)cc1 -1.34%, Cc1cc(NS(=O)(=O)c2ccc(NC(=O)COc3ccc(Cl)cc3)cc2)nc(C)n1 -6.93%, Cc1ccc(NC(=O)Nc2nnc(N(C)Cc3ccccc3)s2)cc1 -12.1%, COc1ccccc1N1CCN(C(=O)Cn2ncc3c(=O)oc4ccccc4c32)CC1 -6.86%, Cc1cccc(N2CCN(S(=O)(=O)c3ccc4c(c3)CCCN4C(=O)C3CCC3)CC2)c1C -10.5%, O=C(Nc1ccc(C(=O)OCc2cc(=O)n3nc(C4CC4)sc3n2)cc1)c1ccc(F)cc1 2.26%, Cc1nc(N2CCCC2)c2c(C(=O)Nc3cccc(C)c3C)c(C)oc2n1 5.22%, O=C(Nc1cccc(Cl)c1)c1c(NC(=O)C(F)(F)F)sc2c1CCCC2 -9.39%, CC(=O)Nc1cccc(NC(=O)Cn2cnc3c2c(=O)n(C)c(=O)n3C)c1 -10.1%, CCOc1ccccc1N(C)C(=O)Cn1cnc2sc(C)c(S(=O)(=O)N3CCC(C)CC3)c2c1=O 2.31%, COc1ccc(S(=O)(=O)N(CC(=O)NCc2ccccc2OC)c2ccc(C)cc2)cc1 -8.82%, COc1cc(OC)c(NC(=O)COCc2cc(-c3cccs3)on2)cc1Cl -4.04%, CN(C)CCN(Cc1ccco1)S(=O)(=O)c1cc2c(cc1Cl)NC(=O)CO2 8.44%, COc1ccccc1CCNC(=O)CCc1c(C)c2cc3c(C)coc3c(C)c2oc1=O 4.55%, Cc1cn2c(=O)cc(COc3ccc(NC(=O)c4cccc(F)c4)cc3)nc2s1 -5.16%, Cc1nn(CCCC(=O)Nc2ccccc2C(F)(F)F)c(=O)c2c1sc1ccccc12 -15%, COc1cccc(NC(=O)Nc2cc(-c3cn4cccnc4n3)ccc2C)c1 3.99%, Cn1c(=O)n(C)c2cc(NS(=O)(=O)c3ccccc3)c(NCc3ccccc3)cc21 -16.3%, O=C(NCCO)C(=O)Nc1c2c(nn1-c1ccc(F)cc1)CSC2 0.373%, CC(C)Oc1ccc(CNC(=O)C2CCN(C(=O)c3sccc3-n3cccc3)CC2)cc1 -5.27%, Cc1ccc(-c2noc(CNC(=O)c3ccc(C(C)(C)C)cc3)n2)cc1 -5.69%, COc1ccccc1CNC(=O)CN1C(=O)CSc2ccc(S(=O)(=O)N3CCCC3)cc21 -4.01%, CC(C)OCCCN(Cc1ccco1)C(=O)c1cc2c(s1)-c1ccccc1OC2 -1.51%, CCN(CC)C(=O)Cn1cc(SCC(=O)Nc2cccc(C)c2)c2ccccc21 0.203%, COCc1cc(C)n(CC(=O)Nc2ccc(NC(C)=O)cc2)c(=O)c1C#N -0.324%, COc1ccccc1-c1noc(-c2ccc(N3CCN(c4ccccc4)CC3)c([N+](=O)[O-])c2)n1 -0.0962%, COc1ccc(N2CCN(c3cc(C)nc4nc(-c5ccc(C)cc5)nn34)CC2)cc1 -8.25%, CC1=C(C#N)C(NC(=O)c2cccc(Cl)c2)(C(F)(F)F)C(=O)N1 (stereo unspecified) 6.63%, Cc1ccc(Cl)cc1NC(=O)N1CCN(C)c2ncccc21 0.0134%, Cc1cccc(C(=O)N2CCc3cc(CNC(=O)CCc4ccccc4)ccc32)c1 -1.8%, O=C(CSc1ncc2c(n1)-c1ccccc1N(Cc1ccc(F)cc1)S2(=O)=O)c1ccc(Cl)cc1 -0.254%, CCc1cc2c(cc3c(=O)n(CC(=O)N4CCN(c5cc(Cl)ccc5C)CC4)ncn32)s1 -0.119%, CCOCCOC(=O)c1ccc(NC(=O)/C=C/c2ccc(OC)c(OC)c2)cc1 17.8%, Cc1ccc(S(=O)(=O)c2cn(C)c3cc(N4CCN(C)CC4)c(F)cc3c2=O)cc1 -0.834%, Cc1cccc(C)c1-n1ncc(C(=O)Nc2ccc3c(c2)OCCO3)c1C1CCN(C(=O)OC(C)(C)C)CC1 7.4%, COc1ccc(Nc2c(-c3cc(Br)ccc3O)nc3ncccn23)cc1OC 0.408%, COc1ccccc1C(=O)Nc1cc2c(cc1N1CCCCC1)n(C)c(=O)n2C 7.22%
